Test results published in US8592383B2, “Cycloalkyl-fused tetrahydroquinolines as CRTH2 receptor modulators” (Merck Sharp & Dohme Corp., priority 2011, dated 2013).
Where two headings read alike, the source gives them in different places.

How the values were obtained:
hCRTH2 [1] = biological target: T1, hCRTH2 (Homo sapiens, UniProt Q9Y5Y4); conditions: Table A; Radioligand Binding Assay A, [3H]PGD2, HEK-hCRTH2 membranes
T1 sequence (Q9Y5Y4 1-395): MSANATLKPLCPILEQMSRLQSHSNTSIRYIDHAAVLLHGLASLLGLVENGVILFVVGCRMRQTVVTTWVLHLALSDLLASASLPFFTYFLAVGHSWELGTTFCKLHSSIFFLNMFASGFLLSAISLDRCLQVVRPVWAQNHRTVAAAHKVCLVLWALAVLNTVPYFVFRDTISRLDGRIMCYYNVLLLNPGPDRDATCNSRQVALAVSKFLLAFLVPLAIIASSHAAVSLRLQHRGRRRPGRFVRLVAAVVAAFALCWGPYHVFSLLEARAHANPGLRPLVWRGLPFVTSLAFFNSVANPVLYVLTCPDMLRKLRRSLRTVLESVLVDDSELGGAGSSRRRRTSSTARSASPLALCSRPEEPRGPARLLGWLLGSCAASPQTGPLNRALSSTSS

hCRTH2 [2] = biological target: T1, hCRTH2; assay: biochemical; conditions: Ki (nM), Table A; Radioligand Binding Assay A, [3H]PGD2, HEK-hCRTH2 membranes

Compound | Ki (hCRTH2 [1]) [µM] | Ki (hCRTH2 [2]) [nM]
O=C(O)CCC(=O)N(C1CC1)C1c2ccc(Cl)cc2N(C(=O)C2CC2c2ccccc2)C2CCCC21 (single isomer, unassigned) [17CY, 4-[[cis,cis-6-chloro-2,3,3a,4,9,9a-hexahydro-4-[(trans-2-phenylcyclopropyl)carbonyl]-1H-cyclopenta[b]quinolin-9-yl]cyclopropylamino]-4-oxobutanoic acid] | 0.001 to 0.005 | 
O=C(O)CCC(=O)N(C1CC1)C1c2ccccc2N(C(=O)OC(c2ccccc2)C2CC2)C2CCCC21 (single isomer, unassigned) [compound 142, 4-(cyclopropylphenylmethyl) cis, cis-[(3-carboxy-1-oxopropyl)cyclopropylamino]-1,2,3,3a,9,9a-hexahydro-4H-cyclopenta[b]quinoline-4-carboxylate] |  | 20.1 to 200
O=C(O)CCC(=O)N(C1CC1)C1c2cc(F)c(Cl)cc2N(C(=O)OCc2ccccn2)C2CCCC21 (single isomer, unassigned) [22H, 4-(2-pyridinylmethyl) cis, cis-[(3-carboxy-1-oxopropyl)cyclopropylamino]-6-chloro-7-fluoro-1,2,3,3a,9,9a-hexahydro-4H-cyclopenta[b]quinoline-4-carboxylate] |  | 5.1 to 20
